# PubChem BioAssay AID588855 (National Center for Advancing Translational Sciences (NCATS), 2011)
# Screen size: about 410,000 compounds; about 5,000 (1.2%) were called active. This list was built around the results that the source calls inconclusive (neither active nor inactive); the mix of calls is not that of the screen. Calls follow the shape of the dose curve; as a rule, active = well fitted inhibition curve with a large enough effect; inconclusive = small, poorly fitted or top-dose-only effect; inactive = no such curve, though single readings can be large or run the other way. Potencies of inconclusive entries are doubtful fits and often do not repeat.
# Assay: qHTS for Inhibitors of TGF-b; also: nearly all actives have a fitted effect of over 65% in size
# Details: HepG2 CAGA-GFP TGF-b/SMAD3 reporter, GFP fluorescence, 18 h, TGF-beta stimulated, 500 pg/mL final; series mostly up to 46.1 µM; activity, negative = inhibition: at the top concentration
# How it was run: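 HEPG2 CAGA-GFP, 1000 cells/well; 2 h settle, 37 C; cpd via pin tool; TGF-b 500 pg/mL final; 18 h, 37 C; GFP imaging ex488/em500-530; %Activity normalised to -TGF-b and +DMSO controls; CRC fit, curve class.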
# % is scaled to controls: 0 for no effect and ±100 for the full control effect; potency is read from the fitted curve at half-maximal effect; tags tell the direction and shape of the fitted curve.
Compound,Potency,"activity, negative = inhibition"
O=S(=O)(Nc1ccc(S(=O)(=O)Nc2nccs2)cc1)c1ccc2c(c1)OCCO2,"inconclusive: 35.5 µM [inhibitor, single point]",–
CCc1nc2c(OCCOc3ccc(F)cc3)cccn2c1N(C)C(=O)c1ccc(C)cc1,"inconclusive: 35.5 µM [inhibitor, single point]",–
CCOC(=O)c1cc(-c2ccc(Cl)s2)[nH]n1,"inconclusive: 35.5 µM [inhibitor, partial curve, poor fit]",–
O=C(Nc1ccc(OC(F)F)c(Cl)c1)c1cccc(OC(F)F)c1,"inconclusive: 25.1 µM [inhibitor, single point]",–
CC1CCN(C(=O)c2[nH]cnc2C(=O)Nc2nccs2)CC1,"inconclusive: 28.2 µM [inhibitor, single point]",–
COc1ccccc1-n1cc(CN2CCCC(CO)(Cc3cccc(Cl)c3)C2)cn1 (stereo not drawn),"inconclusive: 35.5 µM [inhibitor, single point]",–
CC(=O)NC(=S)Nc1cc(C(F)(F)F)ccc1N1CCOCC1,"inconclusive: 35.5 µM [inhibitor, single point]",–
CC(NC(=O)c1cc(Sc2ccc(F)cc2F)nc2ccccc12)c1ccccc1 (stereo not drawn),–,inactive: -13.2%
O=C(COc1ccc(Br)cc1)Nc1ccc2oc(=O)ccc2c1,"inconclusive: 35.5 µM [inhibitor, single point]",–
CCOC(=O)c1oc2ccccc2c1CN1CCOCC1,"inconclusive: 0.501 µM [inhibitor, full curve, poor fit]",–
CC(C)C(C)NC(=O)COC(=O)c1cccc(C(=O)OCC(=O)NC(C)C(C)C)n1 (stereo not drawn),–,inactive: 9.07%
COc1ccccc1C(=O)OCc1c(-c2ccccc2)ncc2ccccc12,"inconclusive: 35.5 µM [inhibitor, partial curve, poor fit]",–
CCc1nn(CC(=O)N2CCCCC2)c(=O)c2cc3sccc3n12,"inconclusive: 20 µM [inhibitor, single point]",–
CCOC(=O)c1c(NC(=O)c2nn(CC)cc2Br)c(C#N)nn1-c1ccccc1,–,inactive: -9.26%
S=C(Nc1ccccc1)N1CCN(c2ccc(N3CCOCC3)nn2)CC1,"inconclusive: 35.5 µM [inhibitor, single point]",–
COc1cc2nc(N3CCCN(C)CC3)nc(NC3CCN(C)C3)c2cc1OC (stereo not drawn),"inconclusive: 28.2 µM [inhibitor, partial curve, poor fit]",–
CN(C)c1ccc(C=c2c3cc([N+](=O)[O-])ccc3n3c2cc(-c2ccccc2)[n+]3C)cc1,"inconclusive: 6.31 µM [inhibitor, full curve, poor fit]",–
Cc1ccccc1-c1nc(CS(=O)(=O)CC(=O)N2CCN(c3ccccc3)CC2)c(C)o1,"inconclusive: 6.31 µM [inhibitor, full curve]",–
COc1ccccc1N1CCN(CCC(=O)Nc2cccc(Cl)c2)CC1,–,inactive: -14.4%
CCOC(=O)C1C(C(=O)OC)=C(c2ccc(OC)cc2)c2ccc(OC)cc2N1S(=O)(=O)C(F)(F)F (stereo not drawn),"inconclusive: 35.5 µM [inhibitor, single point]",–
COc1ccccc1N1CCN(C(c2ccc(N(C)C)cc2)c2nnnn2CCc2ccccc2)CC1 (stereo not drawn),–,inactive: -13.8%
CNC(=O)OCc1nc(SSC(C)(C)C)n(C)c1COC(=O)NC,active: 11.2 µM,–

Compound,Potency,"activity, negative = inhibition"
CC1(Cc2ccccc2OC(F)(F)F)C(=O)Nc2ccc(OC(F)(F)F)cc21 (stereo not drawn),"inconclusive: 35.5 µM [inhibitor, single point]",–
CCOc1ccc(NS(=O)(=O)c2cc(Br)cc3c2N(C(=O)C2CC2)CC3)cc1,–,inactive: 1.06%
O=C(NCCc1ccccc1Cl)c1cc(COc2ccc(F)cc2F)on1,"inconclusive: 12.6 µM [inhibitor, partial curve, poor fit]",–
COC(C[C@H]1O[C@@H]1[C@@H](O)[C@H](C)OCc1ccccc1)OC,"inconclusive: 6.31 µM [inhibitor, single point]",–
CCOc1c(Cl)cc(CNc2nnnn2C)cc1OC,–,inactive: 0.268%
O=[N+]([O-])c1ccc(Cl)c(S(=O)(=O)N2CCCCCC2)c1,"inconclusive: 6.31 µM [inhibitor, single point]",–
CNC(=S)NCCC(c1ccccc1)c1ccccc1,–,inactive: -21.8%
COc1ccc(NC(=O)C2Cc3c(-c4cccc(F)c4)ccnc3O2)cc1OC (stereo not drawn),"inconclusive: 2.51 µM [inhibitor, partial curve]",–
CCC(CC)c1nnc(NC(=O)c2ccc([N+](=O)[O-])cc2)s1,–,inactive: 3.75%
COc1cc(C2N=C(N)Nc3nc4ccccc4n32)ccc1OCCC(C)C (stereo not drawn),–,inactive: -0.567%
O=C(NCc1ccc(F)c(F)c1)C1Cc2c(-c3ccc4c(c3)OCO4)ccnc2O1 (stereo not drawn),"inconclusive: 12.6 µM [inhibitor, partial curve, poor fit]",–
CCN(CC)CCNC(=O)c1ccc(NC(=O)Nc2cccc3ccccc23)cc1,"inconclusive: 6.31 µM [inhibitor, single point]",–
Cc1cc(C)c(S(=O)(=O)c2ccccc2)c(Cl)n1,–,inactive: 19.1%
CN(Cc1ccc(Cl)c(Cl)c1)C(=O)c1ccccc1SCC(=O)N1CCCC1,"inconclusive: 35.5 µM [inhibitor, single point]",–
CCCCNC(=O)CCn1c(=O)c2ccccc2n(Cc2ccccc2C#N)c1=O,–,inactive: -0.452%
S=C1SCN(Cc2ccccn2)CN1Cc1ccco1,"inconclusive: 12.6 µM [inhibitor, partial curve, poor fit]",–
O=C(NCCCN1CCOCC1)c1cccc(S(=O)(=O)NCc2ccccc2)c1,"inconclusive: 0.251 µM [inhibitor, full curve, poor fit]",–
CCN(CC(=O)Nc1ccc(Cl)c(C(F)(F)F)c1)CC(=O)NC1CCS(=O)(=O)C1 (stereo not drawn),"inconclusive: 35.5 µM [inhibitor, single point]",–
Cc1cc(C)c(OCC(=O)Nc2cccc(NC(=O)c3ccco3)c2)c(Br)c1,"inconclusive: 35.5 µM [inhibitor, single point]",–
CCOc1ccc(N(CC)S(=O)(=O)N2CCCC(C(=O)NCc3ccccc3Cl)C2)cc1 (stereo not drawn),"inconclusive: 11.2 µM [inhibitor, single point]",–
CCOc1cccc(CC(=O)N2CCc3c([nH]c4ccccc34)C2c2ccc(F)cc2)c1OCC (stereo not drawn),"inconclusive: 1.58 µM [inhibitor, full curve, poor fit]",–
